# Data taken from publication PMC10407929.
# The list shows a part of the results. Measured with an extract: partners may take part in the binding.
# Experiments:
# Test in all cases: pull-down
# Details in all cases: 150 mM NaCl, 50 mM Tris pH 8.0, 0.25% NP-40, 1 mM DTT; 4 C, 2 h; 100 ug nuclear extract; double strand, one strand shown
# PNKP (Homo sapiens) = PNKP (Homo sapiens) (UniProt Q96T60)
# POLB (Homo sapiens) = POLB (Homo sapiens) (UniProt P06746)
# POLG2 (Homo sapiens) = POLG2 (Homo sapiens) (UniProt Q9UHN1)
# POLR2F (Homo sapiens) = POLR2F (Homo sapiens) (UniProt P61218)
# POLR2H (Homo sapiens) = POLR2H (Homo sapiens) (UniProt P52434)
# POLR3A (Homo sapiens) = molecular target: T1, POLR3A (Homo sapiens) (UniProt O14802)
# T1 sequence: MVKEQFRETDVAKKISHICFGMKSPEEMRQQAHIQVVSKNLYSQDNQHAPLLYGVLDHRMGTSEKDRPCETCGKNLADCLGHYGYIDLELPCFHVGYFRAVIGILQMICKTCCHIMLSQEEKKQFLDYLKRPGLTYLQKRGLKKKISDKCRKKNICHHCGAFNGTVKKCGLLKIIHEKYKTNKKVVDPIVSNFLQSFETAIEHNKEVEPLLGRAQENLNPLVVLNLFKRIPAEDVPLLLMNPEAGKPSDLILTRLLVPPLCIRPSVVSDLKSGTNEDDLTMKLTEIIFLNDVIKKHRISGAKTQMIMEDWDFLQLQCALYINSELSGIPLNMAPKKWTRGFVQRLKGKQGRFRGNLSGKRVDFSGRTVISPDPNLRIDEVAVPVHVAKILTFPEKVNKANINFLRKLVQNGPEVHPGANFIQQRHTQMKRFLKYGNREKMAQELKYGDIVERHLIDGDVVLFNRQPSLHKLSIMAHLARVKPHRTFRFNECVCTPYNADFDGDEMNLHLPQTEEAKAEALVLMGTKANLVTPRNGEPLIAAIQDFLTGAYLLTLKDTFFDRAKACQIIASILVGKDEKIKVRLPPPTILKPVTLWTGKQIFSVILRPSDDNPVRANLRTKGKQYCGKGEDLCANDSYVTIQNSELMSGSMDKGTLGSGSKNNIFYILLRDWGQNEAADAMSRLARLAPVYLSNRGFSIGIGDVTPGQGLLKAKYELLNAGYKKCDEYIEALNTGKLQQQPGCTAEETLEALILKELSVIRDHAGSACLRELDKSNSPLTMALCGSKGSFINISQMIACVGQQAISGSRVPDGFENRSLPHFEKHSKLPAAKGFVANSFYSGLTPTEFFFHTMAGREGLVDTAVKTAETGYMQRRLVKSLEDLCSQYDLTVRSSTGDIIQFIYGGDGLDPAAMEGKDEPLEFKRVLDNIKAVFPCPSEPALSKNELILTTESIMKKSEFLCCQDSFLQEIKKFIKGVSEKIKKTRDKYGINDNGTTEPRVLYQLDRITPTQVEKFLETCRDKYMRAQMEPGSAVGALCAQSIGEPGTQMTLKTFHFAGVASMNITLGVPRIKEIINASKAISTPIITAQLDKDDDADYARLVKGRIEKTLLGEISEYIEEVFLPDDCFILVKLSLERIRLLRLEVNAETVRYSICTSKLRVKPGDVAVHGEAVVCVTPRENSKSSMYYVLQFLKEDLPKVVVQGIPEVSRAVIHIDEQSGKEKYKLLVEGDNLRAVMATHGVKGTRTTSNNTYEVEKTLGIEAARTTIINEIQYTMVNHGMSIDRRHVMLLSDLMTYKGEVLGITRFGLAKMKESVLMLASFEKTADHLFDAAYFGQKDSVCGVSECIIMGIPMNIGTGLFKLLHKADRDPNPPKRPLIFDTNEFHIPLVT
# POLR3B (Homo sapiens) = molecular target: T2, POLR3B (Homo sapiens) (UniProt Q9NW08)
# T2 sequence: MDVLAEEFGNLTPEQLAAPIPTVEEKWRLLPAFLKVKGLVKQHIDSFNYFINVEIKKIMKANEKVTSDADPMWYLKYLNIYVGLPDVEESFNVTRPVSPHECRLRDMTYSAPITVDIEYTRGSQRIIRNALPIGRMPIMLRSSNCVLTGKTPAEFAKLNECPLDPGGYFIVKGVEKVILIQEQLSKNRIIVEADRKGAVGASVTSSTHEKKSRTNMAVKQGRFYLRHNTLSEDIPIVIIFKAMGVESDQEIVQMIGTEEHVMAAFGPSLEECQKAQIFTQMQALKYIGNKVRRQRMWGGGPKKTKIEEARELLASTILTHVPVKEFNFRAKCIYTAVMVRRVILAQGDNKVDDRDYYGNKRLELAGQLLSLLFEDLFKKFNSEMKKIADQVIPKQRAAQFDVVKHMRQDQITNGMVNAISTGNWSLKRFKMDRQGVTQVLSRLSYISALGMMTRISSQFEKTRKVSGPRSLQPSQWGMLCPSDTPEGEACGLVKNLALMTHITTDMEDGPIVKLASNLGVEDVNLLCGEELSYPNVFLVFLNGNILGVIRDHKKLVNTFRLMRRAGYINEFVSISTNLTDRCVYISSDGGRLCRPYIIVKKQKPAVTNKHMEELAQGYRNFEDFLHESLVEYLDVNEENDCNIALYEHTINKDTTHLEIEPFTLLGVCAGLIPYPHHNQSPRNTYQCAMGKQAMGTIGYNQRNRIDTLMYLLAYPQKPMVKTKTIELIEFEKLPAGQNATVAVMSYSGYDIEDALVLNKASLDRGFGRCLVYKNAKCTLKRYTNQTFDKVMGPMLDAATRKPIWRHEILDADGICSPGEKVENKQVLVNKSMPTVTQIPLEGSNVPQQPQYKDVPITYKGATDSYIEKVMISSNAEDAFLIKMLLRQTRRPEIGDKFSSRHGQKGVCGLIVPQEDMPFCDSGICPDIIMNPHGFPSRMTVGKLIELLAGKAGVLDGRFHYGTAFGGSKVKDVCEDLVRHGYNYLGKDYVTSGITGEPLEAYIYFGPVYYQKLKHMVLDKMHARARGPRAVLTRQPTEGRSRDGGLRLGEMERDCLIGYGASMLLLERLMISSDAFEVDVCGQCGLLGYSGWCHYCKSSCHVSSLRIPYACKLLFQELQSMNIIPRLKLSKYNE
# RBM27 (Homo sapiens) = molecular target: T3, RBM27 (Homo sapiens) (UniProt Q9P2N5)
# T3 sequence: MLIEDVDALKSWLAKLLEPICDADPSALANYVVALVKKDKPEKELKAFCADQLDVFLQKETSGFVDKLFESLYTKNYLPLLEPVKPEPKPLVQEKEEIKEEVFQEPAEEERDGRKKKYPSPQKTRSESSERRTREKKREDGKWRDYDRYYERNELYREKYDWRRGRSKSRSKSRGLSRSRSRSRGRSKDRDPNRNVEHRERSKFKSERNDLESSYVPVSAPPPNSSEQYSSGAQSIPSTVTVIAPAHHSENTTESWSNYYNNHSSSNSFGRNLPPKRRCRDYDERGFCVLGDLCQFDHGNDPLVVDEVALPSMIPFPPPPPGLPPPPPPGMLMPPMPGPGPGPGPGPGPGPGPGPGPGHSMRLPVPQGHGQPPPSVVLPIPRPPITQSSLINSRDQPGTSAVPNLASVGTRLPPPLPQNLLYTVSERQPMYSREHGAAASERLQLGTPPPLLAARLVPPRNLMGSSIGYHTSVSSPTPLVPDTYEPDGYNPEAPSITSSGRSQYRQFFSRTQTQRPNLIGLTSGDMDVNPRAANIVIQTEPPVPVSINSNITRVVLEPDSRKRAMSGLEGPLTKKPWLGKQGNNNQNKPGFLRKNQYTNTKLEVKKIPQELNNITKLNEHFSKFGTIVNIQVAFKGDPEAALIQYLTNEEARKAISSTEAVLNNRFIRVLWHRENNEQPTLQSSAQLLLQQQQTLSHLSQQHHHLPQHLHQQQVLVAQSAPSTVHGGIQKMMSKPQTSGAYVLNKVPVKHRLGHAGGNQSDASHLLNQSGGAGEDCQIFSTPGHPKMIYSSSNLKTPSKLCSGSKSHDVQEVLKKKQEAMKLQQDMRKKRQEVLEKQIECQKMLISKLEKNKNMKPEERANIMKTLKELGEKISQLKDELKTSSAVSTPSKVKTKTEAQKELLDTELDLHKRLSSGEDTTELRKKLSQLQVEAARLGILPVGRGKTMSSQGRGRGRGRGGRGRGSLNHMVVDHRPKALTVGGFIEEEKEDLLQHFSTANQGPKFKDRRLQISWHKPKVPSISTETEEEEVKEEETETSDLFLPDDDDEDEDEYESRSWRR
# RBM4 (Homo sapiens) = RBM4 (Homo sapiens) (UniProt Q9BWF3)
# RFC1 (Homo sapiens) = molecular target: T4, RFC1 (Homo sapiens) (UniProt P35251)
# T4 sequence: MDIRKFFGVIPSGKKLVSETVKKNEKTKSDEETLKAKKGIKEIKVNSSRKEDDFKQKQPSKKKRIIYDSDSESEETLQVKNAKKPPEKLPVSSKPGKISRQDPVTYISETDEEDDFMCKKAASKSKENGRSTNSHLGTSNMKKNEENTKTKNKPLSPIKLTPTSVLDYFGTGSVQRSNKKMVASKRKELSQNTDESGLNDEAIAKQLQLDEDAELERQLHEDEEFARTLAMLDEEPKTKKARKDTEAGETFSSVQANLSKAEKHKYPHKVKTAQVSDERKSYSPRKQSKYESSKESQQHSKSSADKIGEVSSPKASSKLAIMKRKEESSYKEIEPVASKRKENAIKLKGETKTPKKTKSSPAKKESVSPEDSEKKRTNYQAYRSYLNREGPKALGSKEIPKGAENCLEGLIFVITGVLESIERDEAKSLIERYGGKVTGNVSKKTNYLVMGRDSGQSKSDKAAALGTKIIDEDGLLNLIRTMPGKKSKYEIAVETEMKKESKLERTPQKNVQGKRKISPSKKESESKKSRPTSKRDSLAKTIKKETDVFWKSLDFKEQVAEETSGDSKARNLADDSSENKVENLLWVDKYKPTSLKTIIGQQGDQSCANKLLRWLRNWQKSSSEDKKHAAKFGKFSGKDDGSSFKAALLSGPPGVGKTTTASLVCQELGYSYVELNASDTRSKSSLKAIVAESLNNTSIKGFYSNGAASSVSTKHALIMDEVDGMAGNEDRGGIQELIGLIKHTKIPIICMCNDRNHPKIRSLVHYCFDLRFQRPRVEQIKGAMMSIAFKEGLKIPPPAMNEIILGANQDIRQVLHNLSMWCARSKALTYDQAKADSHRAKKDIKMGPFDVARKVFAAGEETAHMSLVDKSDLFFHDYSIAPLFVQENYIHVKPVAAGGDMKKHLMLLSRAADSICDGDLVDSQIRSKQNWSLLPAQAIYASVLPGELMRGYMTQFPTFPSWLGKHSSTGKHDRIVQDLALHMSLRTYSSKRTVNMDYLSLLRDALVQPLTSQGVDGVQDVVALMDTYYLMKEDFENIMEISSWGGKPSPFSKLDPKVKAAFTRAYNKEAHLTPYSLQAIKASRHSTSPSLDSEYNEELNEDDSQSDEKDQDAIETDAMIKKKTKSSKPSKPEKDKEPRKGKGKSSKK
# RFC4 (Homo sapiens) = RFC4 (Homo sapiens) (UniProt P35249)
# RFC5 (Homo sapiens) = RFC5 (Homo sapiens) (UniProt P40937)
# RING1 (Homo sapiens) = molecular target: T5, RING1 (Homo sapiens) (UniProt Q06587)
# T5 sequence: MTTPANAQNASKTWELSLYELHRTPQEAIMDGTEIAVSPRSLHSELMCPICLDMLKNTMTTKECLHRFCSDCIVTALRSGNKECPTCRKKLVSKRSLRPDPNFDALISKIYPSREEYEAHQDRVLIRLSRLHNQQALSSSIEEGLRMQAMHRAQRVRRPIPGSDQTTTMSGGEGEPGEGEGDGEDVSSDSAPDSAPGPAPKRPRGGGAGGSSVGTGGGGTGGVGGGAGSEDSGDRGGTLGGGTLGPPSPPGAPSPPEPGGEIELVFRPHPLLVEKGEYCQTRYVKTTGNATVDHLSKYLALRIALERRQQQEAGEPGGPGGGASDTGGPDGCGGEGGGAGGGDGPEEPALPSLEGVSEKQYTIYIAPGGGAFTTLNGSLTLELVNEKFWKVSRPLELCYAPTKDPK
# RPA1 (Homo sapiens) = RPA1 (Homo sapiens) (UniProt P27694)
# RPA3 (Homo sapiens) = RPA3 (Homo sapiens) (UniProt P35244)
# Chain of UniProt P35244 (P35244 whole entry): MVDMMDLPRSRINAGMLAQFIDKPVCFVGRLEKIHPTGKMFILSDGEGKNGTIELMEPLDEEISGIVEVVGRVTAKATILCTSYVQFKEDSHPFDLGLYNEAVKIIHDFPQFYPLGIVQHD
# Chain of UniProt P27694 (P27694 whole entry): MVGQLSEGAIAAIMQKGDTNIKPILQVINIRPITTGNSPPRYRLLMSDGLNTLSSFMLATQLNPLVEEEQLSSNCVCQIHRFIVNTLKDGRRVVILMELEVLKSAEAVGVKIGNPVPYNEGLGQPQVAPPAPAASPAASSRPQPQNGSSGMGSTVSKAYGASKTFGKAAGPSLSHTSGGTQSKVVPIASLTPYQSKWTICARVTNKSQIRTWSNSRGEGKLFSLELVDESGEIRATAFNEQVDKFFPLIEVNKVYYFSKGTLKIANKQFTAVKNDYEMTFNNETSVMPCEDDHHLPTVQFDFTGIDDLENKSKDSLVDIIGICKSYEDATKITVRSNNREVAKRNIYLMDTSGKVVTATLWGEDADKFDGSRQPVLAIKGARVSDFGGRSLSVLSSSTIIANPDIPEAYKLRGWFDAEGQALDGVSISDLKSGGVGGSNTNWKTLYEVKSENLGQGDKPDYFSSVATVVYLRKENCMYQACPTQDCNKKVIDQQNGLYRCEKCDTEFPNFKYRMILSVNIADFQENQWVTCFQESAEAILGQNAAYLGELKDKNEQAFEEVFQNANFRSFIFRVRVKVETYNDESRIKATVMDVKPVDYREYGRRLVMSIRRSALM
# Chain of UniProt Q9BWF3 (Q9BWF3 whole entry): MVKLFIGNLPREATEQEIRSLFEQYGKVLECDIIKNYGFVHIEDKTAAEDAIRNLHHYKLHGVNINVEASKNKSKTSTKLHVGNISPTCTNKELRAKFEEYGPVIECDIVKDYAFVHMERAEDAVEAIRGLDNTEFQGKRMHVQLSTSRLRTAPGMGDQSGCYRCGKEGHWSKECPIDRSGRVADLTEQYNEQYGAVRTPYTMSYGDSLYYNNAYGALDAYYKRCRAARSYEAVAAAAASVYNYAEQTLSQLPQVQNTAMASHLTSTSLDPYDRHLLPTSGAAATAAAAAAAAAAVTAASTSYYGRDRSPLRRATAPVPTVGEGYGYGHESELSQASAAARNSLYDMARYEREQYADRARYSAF
# Chain of UniProt P35249 (P35249 whole entry): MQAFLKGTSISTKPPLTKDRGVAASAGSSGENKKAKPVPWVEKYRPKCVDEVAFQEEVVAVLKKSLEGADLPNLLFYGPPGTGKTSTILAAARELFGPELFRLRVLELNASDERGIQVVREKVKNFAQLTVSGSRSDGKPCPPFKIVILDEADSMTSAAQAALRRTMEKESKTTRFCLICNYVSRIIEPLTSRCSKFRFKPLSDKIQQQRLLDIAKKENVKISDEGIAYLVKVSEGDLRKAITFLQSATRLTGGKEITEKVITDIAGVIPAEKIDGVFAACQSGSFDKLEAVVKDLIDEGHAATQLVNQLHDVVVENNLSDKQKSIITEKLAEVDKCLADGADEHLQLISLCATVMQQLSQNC
# Chain of UniProt Q9UHN1 (Q9UHN1 whole entry): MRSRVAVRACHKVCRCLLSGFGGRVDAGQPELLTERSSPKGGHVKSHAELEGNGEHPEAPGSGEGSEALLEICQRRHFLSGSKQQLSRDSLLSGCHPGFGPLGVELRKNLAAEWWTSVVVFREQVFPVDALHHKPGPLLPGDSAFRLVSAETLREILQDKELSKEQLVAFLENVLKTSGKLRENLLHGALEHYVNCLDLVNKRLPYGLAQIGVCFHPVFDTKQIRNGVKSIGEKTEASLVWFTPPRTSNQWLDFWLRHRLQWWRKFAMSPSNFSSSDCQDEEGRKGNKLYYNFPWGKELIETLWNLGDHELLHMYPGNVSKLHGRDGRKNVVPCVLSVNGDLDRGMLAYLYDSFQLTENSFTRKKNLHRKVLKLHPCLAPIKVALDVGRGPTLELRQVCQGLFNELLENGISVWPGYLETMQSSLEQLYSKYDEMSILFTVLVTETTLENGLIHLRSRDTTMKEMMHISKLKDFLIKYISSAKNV
# Chain of UniProt P40937 (P40937 whole entry): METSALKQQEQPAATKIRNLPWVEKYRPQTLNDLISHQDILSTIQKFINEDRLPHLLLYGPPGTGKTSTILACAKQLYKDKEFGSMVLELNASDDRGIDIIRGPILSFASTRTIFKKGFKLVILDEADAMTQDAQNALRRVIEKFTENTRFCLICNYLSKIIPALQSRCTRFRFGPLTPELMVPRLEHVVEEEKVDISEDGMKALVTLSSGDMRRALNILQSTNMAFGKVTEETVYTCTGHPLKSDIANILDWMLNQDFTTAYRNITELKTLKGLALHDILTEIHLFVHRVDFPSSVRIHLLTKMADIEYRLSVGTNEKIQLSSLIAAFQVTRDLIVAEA
sequence,measurement,setting,value
GCCGCCGCCCTCCCACGCGCTGCCGGGCC [BEND3 bait],half-maximal binding,PNKP (Homo sapiens),323 nM
same,half-maximal binding,POLB (Homo sapiens),111 nM
same,half-maximal binding,POLG2 (Homo sapiens),56.3 nM
same,half-maximal binding,POLR2F (Homo sapiens),150 nM
same,half-maximal binding,POLR2H (Homo sapiens),154 nM
same,half-maximal binding,POLR3A (Homo sapiens),141 nM
same,half-maximal binding,POLR3B (Homo sapiens),123 nM
same,half-maximal binding,RBM27 (Homo sapiens),98.1 nM
same,half-maximal binding,RBM4 (Homo sapiens),384 nM
same,half-maximal binding,RFC1 (Homo sapiens),537 nM
same,half-maximal binding,RFC4 (Homo sapiens),630 nM
same,half-maximal binding,RFC5 (Homo sapiens),658 nM
same,half-maximal binding,RING1 (Homo sapiens),407 nM
same,half-maximal binding,RPA1 (Homo sapiens),351 nM
same,half-maximal binding,RPA3 (Homo sapiens),313 nM
